Reference: paper PMC4336329 (PLoS ONE, 2015)
About 2,200 (0.71%) of roughly 310,000 compounds showed an effect of 50% or more. The effect is printed as a negative number. The list shows a part of the results.

Biological target: human ether-à-go-go-related gene (hERG) potassium channel (human, UniProt Q12809)
Experiment: primary screen, population patch clamp on CHO cells stably expressing hERG

Chain of human ether-à-go-go-related gene (hERG) potassium channel (Q12809 whole entry, looked up): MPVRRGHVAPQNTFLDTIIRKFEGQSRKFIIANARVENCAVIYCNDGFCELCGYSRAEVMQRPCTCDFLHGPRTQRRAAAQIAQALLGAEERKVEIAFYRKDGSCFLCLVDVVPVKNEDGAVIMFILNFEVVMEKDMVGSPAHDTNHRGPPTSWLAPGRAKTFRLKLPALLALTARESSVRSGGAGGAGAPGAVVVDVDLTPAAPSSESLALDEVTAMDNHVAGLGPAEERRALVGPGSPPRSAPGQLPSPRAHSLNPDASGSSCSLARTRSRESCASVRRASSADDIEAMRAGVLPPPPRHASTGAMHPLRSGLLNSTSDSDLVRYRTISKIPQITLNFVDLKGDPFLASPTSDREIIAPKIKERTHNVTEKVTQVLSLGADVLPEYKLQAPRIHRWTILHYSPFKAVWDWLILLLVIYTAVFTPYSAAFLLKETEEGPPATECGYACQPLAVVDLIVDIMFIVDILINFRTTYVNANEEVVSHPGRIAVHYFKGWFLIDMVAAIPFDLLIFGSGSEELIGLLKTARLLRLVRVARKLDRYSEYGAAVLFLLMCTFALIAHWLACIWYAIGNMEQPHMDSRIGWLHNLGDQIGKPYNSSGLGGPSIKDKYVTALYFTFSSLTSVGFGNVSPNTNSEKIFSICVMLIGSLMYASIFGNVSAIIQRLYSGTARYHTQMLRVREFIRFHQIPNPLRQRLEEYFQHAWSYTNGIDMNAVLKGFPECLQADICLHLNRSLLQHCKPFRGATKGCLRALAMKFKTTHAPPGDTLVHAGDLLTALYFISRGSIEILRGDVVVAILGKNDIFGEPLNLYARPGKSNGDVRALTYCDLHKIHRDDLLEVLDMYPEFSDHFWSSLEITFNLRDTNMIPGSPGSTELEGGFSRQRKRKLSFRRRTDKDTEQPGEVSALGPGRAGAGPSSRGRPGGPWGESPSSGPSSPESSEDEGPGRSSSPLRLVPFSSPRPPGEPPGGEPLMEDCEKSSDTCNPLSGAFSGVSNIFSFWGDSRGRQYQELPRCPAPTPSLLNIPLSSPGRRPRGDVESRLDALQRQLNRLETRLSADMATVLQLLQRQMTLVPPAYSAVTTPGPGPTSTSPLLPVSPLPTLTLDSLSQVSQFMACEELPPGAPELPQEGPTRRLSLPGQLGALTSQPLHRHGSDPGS

Compound	hERG current change (%, negative = inhibition) at 1uM
Nc1c(C(=O)CSc2nc(-c3ccccc3)cs2)c(=O)[nH]c(=O)n1C1CC1	7.7%
O=C(N/N=C/c1ccc(Cl)cc1Cl)c1n[nH]c2c1CCCC2	12.1%
COc1cccc(OC)c1/C(O)=C(\C#N)c1nc2ccccc2[nH]1	-1.83%
Cc1ccc2nc(C)c(C(=O)O)cc2c1	17.2%
CSCCC(C)N1CCC(Oc2ccc(C(=O)N3CCCC3)cc2)CC1 (stereo not shown)	-0.954%
CCOC(=O)c1cc(-c2ccncc2)nc2c1c(C)nn2C	-6.27%
CC1(c2ccc(Cl)cc2Cl)NC(=O)N(CC(=O)Nc2ccc3[nH]c(=O)[nH]c3c2)C1=O (stereo not shown)	7.86%
O=C(CCCn1c(=S)[nH]c2ccsc2c1=O)NC1CCCCC1	19.1%
O=C(/C=C/c1cccc(O)c1)c1cccnc1	7.55%
O=C(NCCN1CCOCC1)c1ccccc1N1C(=O)[C@@H]2Cc3c([nH]c4ccccc34)C(c3ccc(F)cc3)N2C1=O (stereo partly shown)	14.1%
CCCN(CC(=O)Nc1ccccc1C)C(=O)C1CCN(c2ncnc3sc(C)c(C)c23)CC1	-56.5%
Cc1ccnn1-c1ccc(C(=O)NCC(c2ccco2)N2CCCC2)cc1 (stereo not shown)	3.01%
CCOC(=O)[C@H]1[C@H]2COc3cc(OC)ccc3[C@@H]2N2C(=O)CN(CC3CCCO3)C(=O)[C@@]12C (stereo partly shown)	12.5%
Cc1ccc(CNS(=O)(=O)NCc2ccccc2F)cc1	10.2%
Clc1cccc2sc(-c3nnc(-c4ccccc4)o3)c(Cl)c12	-4.27%
CC1=C(C(=O)OCc2ccccc2)C(c2ccc(Cl)cc2)NC(=O)N1CCCC(=O)O (stereo not shown)	7.53%
O=C(NCc1ccco1)c1cccc(F)c1	9.88%
COc1ccc(NC(=O)CN(C)C(=O)Cc2coc3cc(C)c(C)cc23)cc1	11%
CCOc1ccc2nc(Nc3nc4ccc(NC(C)=O)cc4s3)sc2c1	14.7%
C/C(=N/NS(=O)(=O)c1ccc(Cl)cc1)c1ccc2c(c1)OCO2	-2.82%
COCc1cc(=O)[nH]c(-c2ccccc2)n1	9.15%
O=C(NC1CCN(S(=O)(=O)c2ccc(Cl)c(F)c2)CC1)c1cccnc1	2.43%

Compound	hERG current change (%, negative = inhibition) at 1uM
[Br-].c1ccc(Cc2cc[n+](Cc3ccccn3)cc2)cc1	8.57%
COCCn1cc(C(=O)NCCCOC(C)C)c2c3ccccc3n(C)c2c1=O	11.8%
O=C(CSc1nnc(-c2c[nH]c3ccccc23)o1)N(Cc1ccccc1)c1ccc(F)cc1	15.3%
NC(=S)C(c1ccccc1)c1ncc(C(F)(F)F)cc1Cl (stereo not shown)	9.32%
CCOc1cccc2sc(N(CCCN(C)C)C(=O)c3ccc(S(=O)(=O)N4CCCCCC4)cc3)nc12.Cl	12.8%
COc1ccc(NC(=O)C2CCCN2S(=O)(=O)c2cccc3nsnc23)c(OC)c1 (stereo not shown)	10.5%
Cc1csc(SCC(=O)NC2CCCCC2)n1	3.4%
O=C(NCc1ccco1)c1ccccc1-c1nc(-c2ccccc2)no1	-1.04%
Nc1nc(N)nc(-c2ccccc2-c2nc(N)nc(N)n2)n1	7.34%
O=C(O)c1cccc(COCC(F)(F)C(F)F)c1	5.45%
COc1cc(CNC(=O)OCC(C)C)cc(OC)c1OC	6.25%
O=C(COc1ccc2ccc(=O)oc2c1)NC1CCCC1	10.7%
O=C(Nc1c(C(=O)Nc2cccc(F)c2)oc2ccccc12)c1ccc2c(c1)OCO2	0.361%
CCOC(=O)c1sc(NC(=O)CNC(=O)Cn2cnc3sc(C)c(C)c3c2=O)nc1C	9.75%
Cc1nc(CCNC(=O)c2cccs2)cs1	4.05%
O=c1c(-c2ccc(O)cc2O)coc2cc(O)cc(O)c12	-7.47%
Cc1ccc(CN(C)C(=O)c2cccc(S(=O)(=O)N3CCN(Cc4ccccc4)CC3)c2)o1	4.88%
COC(=O)c1cc(C(=O)OCC(=O)N2c3ccccc3NC(=O)C2(C)C)cc([N+](=O)[O-])c1	1.25%
Cc1ccccc1Cn1nnc(-c2ccc3c(c2)OCO3)n1	11.5%
COC(=O)c1c(NC(=O)Cc2cccs2)sc(C(=O)NC2CCCCC2)c1C	9.85%
C=CCC1CCCCC12NC(=O)NC2=O (stereo not shown)	3.87%
CCOC(=O)c1nnn(-c2nonc2N)c1-c1ccc(OC)cc1	10.2%

Compound	hERG current change (%, negative = inhibition) at 1uM
O=C(CCNS(=O)(=O)c1ccccc1C(F)(F)F)NCC(c1ccco1)N1CCCCC1 (stereo not shown)	5.62%
Clc1ccc(-c2nnc(-c3cccc4ccccc34)o2)cc1Cl	14.4%
C=C(C)CSc1nncn1/N=C/c1ccc(OC)cc1	13%
COc1ccc(CNC(=O)COC(=O)/C=C/c2cccc(Br)c2)cc1OC	14.9%
COc1cccc(NC(=O)CSc2nnnn2C2CCCC2)c1	3.66%
CC(C)CC1NC(=S)N(C2CCCCC2)C1=O (stereo not shown)	4.7%
O=C(O)C1CCCCC1C(=O)NCCCn1ccnc1 (stereo not shown)	3.61%
Cc1cccc(C(=O)N2CCC(N3CCC(C(=O)N4CCOCC4)CC3)CC2)c1	10.6%
COc1ccc(C(=O)COc2ccc3ccc(=O)oc3c2)cc1	10.1%
CCNCC(=O)N1c2ccccc2CCc2ccc(NC(C)=O)cc21	27.5%
O=c1c2ccccc2ncn1CCCSc1ccccc1	5.35%
O=C(NCCS(=O)(=O)N1CCN(c2ccc(F)cc2)CC1)c1ccc2c(c1)OCO2	3.21%
COc1ccc(CN(C)C2CCCCC2)cc1	-3.86%
COc1ccc(N2C(=O)CC(Sc3n[nH]c(-c4ccccc4)n3)C2=O)cc1 (stereo not shown)	3.53%
CCOC(=O)c1c(NC(=O)COC(=O)CCOc2ccc(OCC)cc2)sc(C(=O)N(C)C)c1C	15.4%
CCOc1ccc(N(CC(=O)NCCc2ccccc2)C(=O)c2csnn2)cc1	-5.46%
COCC(CN1CCN(C2=NS(=O)(=O)c3ccccc32)CC1)OC(=O)c1ccc(OC)cc1 (stereo not shown)	7.07%
O=C(CNC(=O)c1cccs1)N/N=C/c1c[nH]c2ccccc12	6.05%
Cc1cc(C(=O)N2CCN(c3ccc([N+](=O)[O-])cc3)CC2)c(C)o1	-35.1%
Cc1ccc(-c2c(C(=O)N/N=C/C3CC=CCC3)nnn2-c2nonc2N)cc1 (stereo not shown)	16.4%
Cc1cc(=O)oc2cc(OCc3ccc(C(=O)OCC(=O)N(C)C4CCS(=O)(=O)C4)cc3)ccc12 (stereo not shown)	11.6%
Cc1cc(C)c2oc(-c3cccc(NC(=O)c4ccc(F)cc4)c3)nc2c1	2.68%

Compound	hERG current change (%, negative = inhibition) at 1uM
CCOC(=O)N1CCC(NC(=O)CS(=O)(=O)Cc2nc(-c3ccccc3C)oc2C)CC1	4.51%
Fc1ccc(CNc2ccc(N3CCN(Cc4ccccc4)CC3)cc2)cc1	5.52%
O=C(O)c1ccc(NS(=O)(=O)c2cc(C(=O)O)ccc2Br)cc1	13.3%
Cc1ccc(-n2nc3ccc(NC(=O)c4cccc([N+](=O)[O-])c4C)cc3n2)cc1	14.3%
Cc1ccc(NC(=O)N2CCOCC2)c(C)c1	14.4%
O=C(COC(=O)/C=C/c1ccc(S(=O)(=O)N2CCCCCC2)cc1)NCc1ccccc1Cl	12.1%
Cc1c(NC(=O)COc2ccccc2Cl)c(=O)n(-c2ccccc2)n1C	5.08%
CC(CC(=O)O)CC(=O)N1CCN(S(=O)(=O)c2cccs2)CC1 (stereo not shown)	-4.98%
CSc1ccc(CN2CCCC(CO)(Cc3ccccc3)C2)cc1 (stereo not shown)	-10.5%
CCC(C)NC(=O)COC(=O)c1ccccc1OCC(=O)Nc1ccc(Br)cc1 (stereo not shown)	8.27%
CCOP(=O)(OCC)C(NC(=O)c1ccccc1C)C(Cl)(Cl)Cl (stereo not shown)	8.85%
Cc1ccc2nc3sc(C(=O)NCc4ccco4)c(N)c3cc2c1	5.32%
Cc1nn(-c2ccccc2)c(C)c1/C=N/N1CCN(c2ccccn2)CC1	13.8%
Cc1c(C(=O)c2ccc(Cl)c(Cl)c2)cnc2cc3c(cc12)OCO3	11.7%
Cc1ccc(-n2nnnc2SCn2nnc3ccccc3c2=O)c(C)c1	2.92%
CC(C)COP(=O)(c1ccc(N(C)C)cc1)C(O)c1ccc(Br)cc1 (stereo not shown)	17.1%
COc1ccc(C(CC(=O)N2CCCCC2)C(C)C)cc1 (stereo not shown)	32.2%
Cc1ccc(NC(=O)COC(=O)C2CCC(=O)N2)c([N+](=O)[O-])c1 (stereo not shown)	-2.2%
O=C(NC1CCCc2ccccc21)C1CCCC1 (stereo not shown)	5.11%
C=CCn1c(SCC(=O)Nc2ccc3c(c2)OCCO3)nnc1-c1ccccn1	-2.19%
CC(=O)N(Cc1ccccc1)c1ccc(C(=O)O)cc1	9.43%
O=C(COc1cccnc1[N+](=O)[O-])N1CCc2ccccc21	13.6%
